According to the supplement of paper PMC10126150:
Sequences with one replicate were seen in a single cluster, so their values are uncertain.

Tested on: ATP
Test: switch fluorescence ratio, 500 uM ATP over buffer (Cy3 cluster intensity, sum of 5 cycles each) (fold (ratio)); higher = stronger signal-on switching upon ATP binding; sequences stand for … in TCGTCGGCAGCGTCAGATGTGTATAAGAGACAGTTTTTTTTTTTTTTTTTTTTTTTTT…TC
Conditions: aptamer strand: ATP DNA aptamer (quencher-CACCTGGGGGAGTATTGCGGAGGAAGG + anchor), 100 nM annealed; ATP concentration: 500 uM; one replicate
Outline: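 Per cluster, summed Cy3 intensity from the target cycles was divided by that from the buffer cycles to give the fluorescence ratio, then averaged per switch-domain sequence. Clusters outside 100-1000 RFU were excluded. The Cy3-labelled switching-strand clusters, on a modified Illumina MiSeq flow-cell, were annealed to 100 nM quencher-labelled ATP aptamer and imaged in selection buffer, then after 15 min with 500 uM ATP at 22 °C, for five cycles with NaOH stripping and re-annealing between them.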
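Also: ATP exposure 15 min at 22 °C before imaging.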

Sequence | switch fluorescence ratio
TCACTTATTA | 1
ATGAGGACG | 1.01
AGGATGGTGC | 1.01
AGGATTTGCT | 0.999
TTGCCTCG | 1.07
ACCTATGCCT | 1.03
AACCGCTTTC | 3.51
TTATCTGGCC | 1.01
TCGATTGAG | 0.951
GTTGTACGTA | 1.03
CTATTAACAG | 1.02
CGTCATACAG | 0.997
CCACGCGGCC | 3.04
TCTGAGA | 0.989
TTGGTCTGTT | 0.976
AAACTAGTCA | 1.01
GGAATTACGT | 0.997
TTAAATCCTT | 1.06
AAGAATGGGA | 1.01
TTTCGGCAGC | 1.05
GAAAGGCATG | 1.05
ATTCGGACGC | 1.66
AACCAAATCA | 1.02
GATCAGGTAG | 1.06
GCCGAAAAT | 0.984
GTGTGCGACC | 1.01

Sequence | switch fluorescence ratio
ACCAATGGAT | 1.03
TTGTTTGTC | 1.04
ACTAAAGTAG | 1
GGTGCAGCA | 0.975
CGTGAACAGA | 1.01
ATGTGAATTC | 0.992
ATCGACTCGT | 1.01
GCATCTCTAG | 1.01
TGCCGGATAG | 1.01
CCTGGTAGGG | 1.04
ACTGGCTCCG | 1.52
TTATTCGCA | 1.25
GATCTTGAGG | 1.07
GATAATCGTT | 0.997
CCCATCATTG | 1.03
AACGAAGACC | 1.02
AAAAGGCAAA | 0.997
TTTAGACTTG | 1.02
CGTTTGAGTA | 0.956
TTACGGGATC | 1.02
GCTTTCTGGC | 1.06
TTAGGTAGAC | 1.05
GTCAGGTTTT | 0.976
CGGGCCCGTC | 0.997
TTATCAGG | 0.984
GAGTCGCCAA | 1.03

Sequence | switch fluorescence ratio
CTTAATGGGT | 0.913
TTTCACTCCG | 1.39
ACCTAGATAT | 0.995
GGTGCCGCTT | 1.01
TGCCAGTGC | 2.15
GGGGATCACG | 1.01
AAAGATAATA | 1.04
CATCGACC | 1.63
GGCTCTCCGG | 1.05
CGCTCATCAG | 0.986
TTGCCCGAGA | 1.01
ATCCAGCGTC | 1.05
CCAAAAAAGC | 0.963
TTTCGTTCAG | 0.988
GGCCAGGGGC | 1.05
CTCAGAAAGG | 1.01
CGTGCTTAAA | 1.02
TTATTGAAAG | 1.01
AGCATAGAAT | 0.993
GGGTTCCTTC | 1.03
CCTACACTAG | 1.15
AATCCACGGA | 1.1
GAAAGCGTAG | 1.03
GTCATGTGGG | 0.978
TCGTAGAAT | 0.988
AAGTTTTGTC | 1.07

Sequence | switch fluorescence ratio
AAAAGTGTT | 1.01
TATTTATAGG | 0.969
TTATGTGTTC | 0.961
TTGGTATTGC | 0.988
GCCGGCCTCA | 0.98
GCCGGTTGGG | 0.967
ATAGTTCTTG | 1.01
ACTCACTACC | 1.33
GGTGCGGGTC | 1.02
GCGGATAGCT | 0.963
ATACGAGCTG | 1.04
GTTTTAAGCG | 0.944
TAGGCAAGAT | 1.17
AAGGGTCCTT | 1.02
CGCGCGCCGT | 1.02
AGGTGGCGCT | 1.01
ATATAGTGAC | 1.01
GCGGAGGGGA | 1.01
AGAGACGTTT | 0.968
CGAGAAAAAC | 2.34
CAAGGAAGCT | 1.11
ATCGGATGGT | 1.03
GCGTACGTGT | 0.994
CTGTGCTGCG | 0.931
GGCTTAACAG | 1.01
GAGTCGGGGA | 1.02

Sequence | switch fluorescence ratio
GCGTCTTTTA | 1.02
TTGGGAGTAG | 1.01
AGCTTGGTCT | 1.04
CTCCCTAGAT | 1.21
CAGTCACTAT | 1.06
GGATTCAATA | 0.99
ACCCGAATTG | 1.04
GCCATACAAC | 1.09
TGTCCCCAGG | 3.22
TTCCATGGCT | 0.986
GACTTTTTTA | 1.06
CGGCTGAGAC | 1.13
ATGCTCTTTT | 0.965
GCGATAGATC | 1.01
TTAGGTGAAT | 1.02
CAATTAGTCA | 0.994
TACATGGTGC | 1.23
ACATTTATAC | 1.14
CGGGGTATGT | 0.943
CCGATCGTC | 2.68
TTTTTGGAG | 0.985
TGATGAGGGC | 1.1
ATGTTCCGT | 1.03
GATTGATAAC | 1.08
CAGGTTCGTT | 0.988
TTCCGCC | 1.9

Sequence | switch fluorescence ratio
AACTTGCCGA | 1
TATTAATCCA | 0.971
CAAATGCTTA | 0.972
GATTTGGTAC | 1.04
GGCTAAAACG | 1.03
GTAAATAGCC | 1.03
TGAAAATGAG | 0.993
CTCGTATTCC | 0.989
CACCACATTT | 1.05
AAAGTCGTGT | 0.989
CAATATGTAA | 0.978
ATACATGGAG | 1.03
GGCTTTGGTG | 0.968
ATTAAGTA | 0.95
TCACTGACCA | 1.2
TTTTCCCCGC | 1.65
TCTATCATGG | 0.951
GAAATGCGTC | 1.05
CATGAAAAG | 1.01
CGTTTATCCT | 1.04
TGATGTGTGG | 0.951
AATATGACAG | 1.01
TGATGCAGCC | 1.06
GGGTGTGTCA | 0.975
AGACCGTGCA | 1.03
AAACCGACGG | 1.03

Sequence | switch fluorescence ratio
AGCGCTAAGG | 1.02
AAAGGATAGA | 1.02
GCACTAATAA | 1.05
CGTTGCCTA | 0.998
AGTTACAATT | 0.961
CCTCCCCCCA | 3.07
TTCAGTCGTT | 0.974
GCTAGGAGCT | 0.957
AAGGTGTGTC | 0.937
AACAGGCTTT | 0.982
CAAGGATGTT | 0.961
AGGTGAGTGG | 0.983
TTCCTTAAAT | 1.02
GGATGGGTTC | 0.973
TGGGGCTGCA | 0.938
GGCCATTGAG | 0.983
GAGAGGATAT | 0.962
CTGTCAACCC | 1.08
CCCTATACTA | 1.35
GTTGTCTACA | 0.994
CGGAAGGCTG | 0.954
GCTGAGTCGG | 1
CCTGTACGTT | 1.04
TCATCTGGAG | 1.03
CGTTAGCAGT | 1.12
AGTATACGGA | 0.98

Sequence | switch fluorescence ratio
GGGGGGCTAC | 1.11
CGTAGAGTGG | 1.01
ACTATATGGA | 1.07
CGGCCCTCTG | 1.01
GCAAGTTTTC | 0.97
GGATTGGTGA | 0.973
TAATGCGGG | 0.974
CATGATGGGA | 0.994
GATATGGTAT | 0.986
TCGAGTAGCG | 1.03
TGAGCGAACA | 0.988
GCTCACCAGT | 1.07
TAGGGTGTCC | 0.973
GTGCATCTGT | 1.01
CTCTCGGGAT | 1.19
ACAGTAGTG | 1.02
GAGACCTCT | 1
CTGAGTTGCC | 1.02
GCTGGAGCCG | 1.07
